The supplement of paper PMC4967469

Columns and labels:
Assay in all cases: Viability of human cancer cell lines after 72 h of drug (GDSC screen)
[1] = compound: CN1CCN(c2ccc([N+](=O)[O-])c3no[n+]([O-])c23)CC1 [NSC-207895]; details: top dose 20 µM; top dose inferred
Experimental: (§1)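 Human cancer cell lines in 384-well plates, medium with 10% serum, drug for 72 h over a 256-fold dose range (nine 2-fold or five 4-fold steps up to the top dose). Adherent lines were fixed and stained with the nucleic acid dye Syto60, suspension lines read with resazurin; signal relative to control wells, capped at 0 and 100%. One two-parameter sigmoid per drug and line, fitted in a mixed model over all curves with the slope shared within a line.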

[2] = compound: CC(=O)O[C@@]12CO[C@@H]1C[C@H](O)[C@@]1(C)C(=O)[C@H](O)C3=C(C)[C@@H](OC(=O)[C@H](O)[C@@H](NC(=O)OC(C)(C)C)c4ccccc4)C[C@@](O)([C@@H](OC(=O)c4ccccc4)[C@H]21)C3(C)C [Docetaxel]; details: top dose 0.0125 µM
Experimental: as §1

[3] = compound: C[C@]1(O)C[C@@H](c2nc(-c3ccc4ccc(-c5ccccc5)nc4c3)c3c(N)nccn32)C1 [OSI-906]; details: top dose 2.56 µM; top dose inferred
Experimental: as §1

[4] = compound: Cc1ccc(C(=O)N(CCCN)[C@@H](c2nc3cc(Cl)ccc3c(=O)n2Cc2ccccc2)C(C)C)cc1 [SB-715992]; details: top dose 0.128 µM; top dose inferred
Experimental: as §1

[5] = compound: COC(=O)[C@H](CCSC)NC(=O)c1ccc(NC[C@@H](N)CS)cc1-c1ccccc1 [FTI-277]; details: top dose 1.024 µM; top dose inferred
Experimental: as §1

[6] = compound: CC1(C)CNc2cc(NC(=O)c3cccnc3NCc3ccncc3)ccc21 [AMG-706]; details: top dose 2 µM; top dose inferred
Experimental: as §1

[7] = compound: COCC[n+]1c2c(n(Cc3cnccn3)c1C)C(=O)c1ccccc1C2=O [YM155]; details: top dose 5.12 µM
Experimental: as §1

[8] = compound: Cc1sc2c(c1C)C(c1ccc(Cl)cc1)=N[C@@H](CC(=O)OC(C)(C)C)c1nnc(C)n1-2 [JQ1]
Experimental: as §1

[9] = compound: O=C(/C=C/c1cccc(S(=O)(=O)Nc2ccccc2)c1)NO [Belinostat]; details: top dose 20 µM; top dose inferred
Experimental: as §1

[10] = compound: CCOc1nc(NC(=O)Cc2cc(OC)ccc2OC)cc(N)c1C#N [JNK Inhibitor VIII]; details: top dose 10 µM; top dose inferred
Experimental: as §1

[11] = compound: c1ccc2c(CCNc3ccc(Nc4ccncc4)cc3)c[nH]c2c1 [JNJ-26854165]; details: top dose 10 µM
Experimental: as §1

[12] = top dose 1 µM, screen: GDSC drug entry 1218, top dose inferred
[13] = top dose 2.56 µM, screen: GDSC drug entry 163

## LoVo (large intestine, adherent)
[1]
  AUC: 0.983
  pIC50: < 4.70
[2]
  AUC: 0.87
  pIC50: 7.92
[3]
  AUC: 0.984
  pIC50: < 5.59
[4]
  AUC: 0.909
  pIC50: < 6.89
[5]
  AUC: 0.959
  pIC50: < 5.99
[6]
  AUC: 0.974
  pIC50: < 5.70
[7]
  AUC: 0.643
  pIC50: 6.10
[8]; [12]
  AUC: 0.986
  pIC50: < 6.00
[8]; [13]
  AUC: 0.749
  pIC50: 6.08
[9]
  AUC: 0.567
  pIC50: 5.72
[10]
  AUC: 0.967
  pIC50: < 5.00

## MDA-MB-330 (breast, adherent)
[1]
  AUC: 0.974
  pIC50: < 4.70
[2]
  AUC: 0.93
  pIC50: < 7.90
[3]
  AUC: 0.918
  pIC50: < 5.59
[4]
  AUC: 0.967
  pIC50: < 6.89
[5]
  AUC: 0.973
  pIC50: < 5.99
[6]
  AUC: 0.934
  pIC50: < 5.70
[7]
  AUC: 0.275
  pIC50: 7.18
[8]; [12]
  AUC: 0.984
  pIC50: < 6.00
[8]; [13]
  AUC: 0.561
  pIC50: 6.62
[9]
  AUC: 0.444
  pIC50: 6.07
[10]
  AUC: 0.978
  pIC50: < 5.00

## NCI-H810 (large cell lung carcinoma, adherent)
[1]
  AUC: 0.93
  pIC50: < 4.70
[2]
  AUC: 0.811
  pIC50: 8.20
[3]
  AUC: 0.887
  pIC50: < 5.59
[4]
  AUC: 0.777
  pIC50: 7.31
[5]
  AUC: 0.978
  pIC50: < 5.99
[6]
  AUC: 0.983
  pIC50: < 5.70
[7]
  AUC: 0.063
  pIC50: > 7.70
[8]; [12]
  AUC: 0.987
  pIC50: < 6.00
[8]; [13]
  AUC: 0.591
  pIC50: 6.55
[9]
  AUC: 0.181
  pIC50: 6.84
[10]
  AUC: 0.988
  pIC50: < 5.00

## NCI-H838 (lung adenocarcinoma, adherent)
[1]
  AUC: 0.966
  pIC50: < 4.70
[2]
  AUC: 0.699
  pIC50: 8.54
[3]
  AUC: 0.846
  pIC50: 5.71
[4]
  AUC: 0.985
  pIC50: < 6.89
[5]
  AUC: 0.978
  pIC50: < 5.99
[6]
  AUC: 0.974
  pIC50: < 5.70
[7]
  AUC: 0.045
  pIC50: > 7.70
[9]
  AUC: 0.475
  pIC50: 5.97
[10]
  AUC: 0.967
  pIC50: < 5.00

## PCI-30 (head and neck, adherent)
[1]
  AUC: 0.983
  pIC50: < 4.70
[2]
  AUC: 0.888
  pIC50: < 7.90
[3]
  AUC: 0.872
  pIC50: < 5.59
[4]
  AUC: 0.985
  pIC50: < 6.89
[5]
  AUC: 0.984
  pIC50: < 5.99
[11]
  AUC: 0.913
  pIC50: < 5.00
[6]
  AUC: 0.973
  pIC50: < 5.70
[8]; [12]
  AUC: 0.982
  pIC50: < 6.00
[8]; [13]
  AUC: 0.979
  pIC50: < 5.59
[9]
  AUC: 0.805
  pIC50: 4.89
[10]
  AUC: 0.98
  pIC50: < 5.00

## RPMI-7951 (melanoma, adherent)
[1]
  AUC: 0.758
  pIC50: 5.17
[2]
  AUC: 0.466
  pIC50: 9.20
[3]
  AUC: 0.987
  pIC50: < 5.59
[4]
  AUC: 0.712
  pIC50: 7.51
[5]
  AUC: 0.964
  pIC50: < 5.99
[11]
  AUC: 0.86
  pIC50: 5.10
[6]
  AUC: 0.968
  pIC50: < 5.70
[7]
  AUC: 0.023
  pIC50: > 7.70
[8]; [13]
  AUC: 0.905
  pIC50: < 5.59
[10]
  AUC: 0.963
  pIC50: < 5.00

## SK-MEL-3 (melanoma, adherent)
[1]
  AUC: 0.93
  pIC50: < 4.70
[2]
  AUC: 0.9
  pIC50: < 7.90
[3]
  AUC: 0.751
  pIC50: 6.02
[4]
  AUC: 0.974
  pIC50: < 6.89
[5]
  AUC: 0.976
  pIC50: < 5.99
[11]
  AUC: 0.9
  pIC50: < 5.00
[6]
  AUC: 0.979
  pIC50: < 5.70
[7]
  AUC: 0.128
  pIC50: > 7.70
[8]; [12]
  AUC: 0.983
  pIC50: < 6.00
[8]; [13]
  AUC: 0.775
  pIC50: 5.93
[10]
  AUC: 0.984
  pIC50: < 5.00

## SW626 (ovary, adherent)
[1]
  AUC: 0.934
  pIC50: < 4.70
[2]
  AUC: 0.803
  pIC50: 8.12
[3]
  AUC: 0.945
  pIC50: < 5.59
[4]
  AUC: 0.697
  pIC50: 7.50
[5]
  AUC: 0.951
  pIC50: < 5.99
[11]
  AUC: 0.922
  pIC50: < 5.00
[6]
  AUC: 0.954
  pIC50: < 5.70
[7]
  AUC: 0.157
  pIC50: 7.66
[8]; [12]
  AUC: 0.981
  pIC50: < 6.00
[8]; [13]
  AUC: 0.652
  pIC50: 6.34
[10]
  AUC: 0.983
  pIC50: < 5.00

## T98G (glioma, adherent)
[1]
  AUC: 0.974
  pIC50: < 4.70
[2]
  AUC: 0.615
  pIC50: 8.80
[3]
  AUC: 0.99
  pIC50: < 5.59
[4]
  AUC: 0.934
  pIC50: < 6.89
[5]
  AUC: 0.987
  pIC50: < 5.99
[11]
  AUC: 0.834
[6]
  AUC: 0.978
  pIC50: < 5.70
[8]; [12]
  AUC: 0.989
  pIC50: < 6.00
[8]; [13]
  AUC: 0.765
  pIC50: 6.06
[9]
  AUC: 0.74
  pIC50: 5.25
[10]
  AUC: 0.986
  pIC50: < 5.00

## T-T (oesophagus, adherent)
[1]
  AUC: 0.876
  pIC50: 4.70
[2]
  AUC: 0.524
  pIC50: 9.04
[3]
  AUC: 0.865
  pIC50: 5.65
[4]
  AUC: 0.944
  pIC50: < 6.89
[5]
  AUC: 0.968
  pIC50: < 5.99
[11]
  AUC: 0.879
  pIC50: < 5.00
[6]
  AUC: 0.98
  pIC50: < 5.70
[8]; [12]
  AUC: 0.985
  pIC50: < 6.00
[8]; [13]
  AUC: 0.527
  pIC50: 6.72
[9]
  AUC: 0.834
  pIC50: 4.89
[10]
  AUC: 0.963
  pIC50: < 5.00

## YKG-1 (glioma, adherent)
[1]
  AUC: 0.907
  pIC50: < 4.70
[2]
  AUC: 0.525
  pIC50: 9.04
[3]
  AUC: 0.987
  pIC50: < 5.59
[4]
  AUC: 0.618
  pIC50: 7.77
[5]
  AUC: 0.987
  pIC50: < 5.99
[11]
  AUC: 0.85
  pIC50: 5.11
[6]
  AUC: 0.986
  pIC50: < 5.70
[8]; [12]
  AUC: 0.985
  pIC50: < 6.00
[8]; [13]
  AUC: 0.672
  pIC50: 6.31
[9]
  AUC: 0.754
  pIC50: 5.17
[10]
  AUC: 0.965
  pIC50: < 5.00

pIC50: −log10 of the molar value. A lower IC50 marks a more sensitive line; fits outside the tested doses are given as limits. For AUC the same curve is integrated over the 256-fold range of doses and scaled to a fraction; it is 1 without any effect and falls as sensitivity rises. For some of these results: A top dose marked as inferred comes from the curve model; the source does not state it. For some of these results: Drugs with an entry number were screened twice under separate entries, and the two screens often disagree.
